Experimental data from patent US20200085917A1 (UNIVERSITY OF PITTSBURGH OF THE COMMONWEALTH SYSTEM OF …, published 2020).

Columns and labels:
Experiment in all cases: GST pull-down, LC-MS/MS
[1] = molecular target: T1, Stoml2_IPI:IPI00115117.1 (mouse, UniProt Q99JB2 29-353)
T1 sequence (looked up): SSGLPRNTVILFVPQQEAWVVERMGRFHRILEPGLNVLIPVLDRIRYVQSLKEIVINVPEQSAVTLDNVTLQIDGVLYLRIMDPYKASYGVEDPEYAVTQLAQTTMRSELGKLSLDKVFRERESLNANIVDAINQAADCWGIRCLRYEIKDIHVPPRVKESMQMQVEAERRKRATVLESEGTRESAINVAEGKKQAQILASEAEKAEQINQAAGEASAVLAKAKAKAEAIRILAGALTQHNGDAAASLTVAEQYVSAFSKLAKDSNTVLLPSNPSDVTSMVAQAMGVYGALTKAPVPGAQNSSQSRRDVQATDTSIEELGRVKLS

[2] = molecular target: T2, Hmgcl_IPI:IPI00127625.1 (mouse, UniProt P38060 28-325, limits assumed)
T2 sequence (looked up): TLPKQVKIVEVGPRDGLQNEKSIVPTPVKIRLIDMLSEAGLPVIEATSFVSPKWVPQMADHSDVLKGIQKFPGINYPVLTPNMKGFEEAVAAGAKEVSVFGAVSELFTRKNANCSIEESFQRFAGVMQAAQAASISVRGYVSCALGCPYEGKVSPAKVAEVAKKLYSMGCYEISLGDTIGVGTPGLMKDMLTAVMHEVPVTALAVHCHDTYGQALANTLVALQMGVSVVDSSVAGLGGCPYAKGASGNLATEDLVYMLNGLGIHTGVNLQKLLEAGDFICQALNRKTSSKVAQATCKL

[3] = molecular target: T3, Dci_IPI:IPI00114416.1 (mouse, UniProt P42125 29-289)
T3 sequence (looked up): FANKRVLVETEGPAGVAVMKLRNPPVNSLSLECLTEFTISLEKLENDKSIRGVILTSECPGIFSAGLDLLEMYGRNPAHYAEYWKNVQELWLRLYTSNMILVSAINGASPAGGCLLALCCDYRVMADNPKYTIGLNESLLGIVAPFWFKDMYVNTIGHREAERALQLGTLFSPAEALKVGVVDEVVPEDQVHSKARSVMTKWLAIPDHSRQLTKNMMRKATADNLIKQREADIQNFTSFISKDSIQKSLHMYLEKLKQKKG

[4] = molecular target: Afg3l2_IPI:IPI00170357.5 (mouse, UniProt Q8JZQ2 67-802)
UniProt Q8JZQ2, sequence (Q8JZQ2 67-802 limits assumed): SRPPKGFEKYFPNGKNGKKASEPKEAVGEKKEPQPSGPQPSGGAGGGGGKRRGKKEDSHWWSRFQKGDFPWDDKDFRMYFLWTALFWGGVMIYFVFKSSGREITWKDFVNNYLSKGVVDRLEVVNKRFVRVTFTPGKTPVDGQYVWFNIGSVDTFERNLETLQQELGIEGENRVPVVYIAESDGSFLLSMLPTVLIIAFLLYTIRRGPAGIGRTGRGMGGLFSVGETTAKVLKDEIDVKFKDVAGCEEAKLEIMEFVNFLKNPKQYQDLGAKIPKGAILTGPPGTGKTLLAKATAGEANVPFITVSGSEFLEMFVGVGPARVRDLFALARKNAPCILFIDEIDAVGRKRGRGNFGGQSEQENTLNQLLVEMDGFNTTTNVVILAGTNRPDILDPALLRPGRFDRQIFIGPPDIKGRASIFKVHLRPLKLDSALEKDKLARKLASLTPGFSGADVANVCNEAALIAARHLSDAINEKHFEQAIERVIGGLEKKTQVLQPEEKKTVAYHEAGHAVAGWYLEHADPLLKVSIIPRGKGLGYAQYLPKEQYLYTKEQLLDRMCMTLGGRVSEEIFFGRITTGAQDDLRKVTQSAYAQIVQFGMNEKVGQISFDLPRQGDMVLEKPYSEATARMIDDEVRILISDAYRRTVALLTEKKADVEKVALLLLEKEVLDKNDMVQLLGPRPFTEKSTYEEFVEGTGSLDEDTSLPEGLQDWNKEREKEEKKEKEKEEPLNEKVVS

[5] = molecular target: T4, Dnaja3_IPI:IPI00120414.1 (mouse, UniProt Q99M87 1-480, limits assumed)
T4 sequence (looked up): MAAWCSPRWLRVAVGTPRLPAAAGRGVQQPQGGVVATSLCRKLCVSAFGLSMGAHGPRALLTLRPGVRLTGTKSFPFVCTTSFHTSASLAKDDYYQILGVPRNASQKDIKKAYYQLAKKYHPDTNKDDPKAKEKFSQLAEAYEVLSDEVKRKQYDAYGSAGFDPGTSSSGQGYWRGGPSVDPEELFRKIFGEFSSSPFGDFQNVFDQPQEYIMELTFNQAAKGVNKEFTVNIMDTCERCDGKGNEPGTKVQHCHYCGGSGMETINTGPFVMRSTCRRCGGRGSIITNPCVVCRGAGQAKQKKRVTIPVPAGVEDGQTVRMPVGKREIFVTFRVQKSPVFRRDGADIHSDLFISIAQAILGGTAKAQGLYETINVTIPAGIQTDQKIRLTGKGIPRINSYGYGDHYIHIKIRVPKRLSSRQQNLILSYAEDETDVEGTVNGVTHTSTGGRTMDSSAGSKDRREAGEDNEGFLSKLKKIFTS

[6] = molecular target: T5, Ppt1_IPI:IPI00331318.2 (mouse, UniProt O88531 28-306)
T5 sequence (looked up): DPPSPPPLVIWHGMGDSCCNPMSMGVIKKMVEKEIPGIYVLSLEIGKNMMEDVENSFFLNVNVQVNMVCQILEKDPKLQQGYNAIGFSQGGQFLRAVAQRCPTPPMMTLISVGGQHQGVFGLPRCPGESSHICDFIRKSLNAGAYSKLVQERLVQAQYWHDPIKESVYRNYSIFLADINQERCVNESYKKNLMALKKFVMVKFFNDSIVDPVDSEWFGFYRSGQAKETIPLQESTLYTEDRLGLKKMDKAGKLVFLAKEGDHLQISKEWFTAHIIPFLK

Measured: binding result

B1: GST alone (other)
chain: not shown
notes: Negative control of the pull-downs; also called control GST
no binding: all assays above
